The other results are listed elsewhere or left out. Sequences were assembled here from the parent chain. Inactive controls read about 0.05.
B1: TEV protease; numbered along this chain (parent)
chain: MGESLFKGPRDYNPISSSICHLTNESDGHTTSLYGIGFGPFIITNKHLFRRNNGTLVVQSLHGVFKVKDTTTLQQHLVDGRDMIIIRMPKDFPPFPQKLKFREPQREERICLVTTNFQTKSMSSMVSDTSCTFPSGDGIFWKHWIQTKDGQCGSPLVSTRDGFIVGIHSASNFTNTNNYFTSVPKNFMELLTNQEAQQWVSGWRLNADSVLWGGHKVFMVKPEEPFQPVKEATQL

Variants of: B1
Assay: raw area under fraction-flipped curve 0-4 h after induction (AUC4h, not background-subtracted), DNA-recorder readout of cleavage of the substrate (dimensionless); higher = more cleavage of the substrate by the protease variant
Details: temperature: 34 °C; time window: 0-4 h after rhamnose induction
Experimental: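 In vivo DNA recorder in E. coli TOP10(DE3) ΔrhaA at 34 °C. Each TEVp single-site mutant (parent TEVp 0) is paired with a single-site variant of the 7-mer TEVs (canonical ENLYFQ|S). The substrate sits between flexible linkers in a Bxb1-sfGFP-TEVs-SsrA fusion, so cleavage stabilises Bxb1 and speeds flipping of a recombination array, read by NGS. The value is the raw area under the fraction-flipped curve over 0-4 h after rhamnose induction (AUC4h), with ≥20 reads per time point. It is not background-subtracted; inactive controls average about 0.047.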
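Further: Bxb1 expression induced with 0.2% (w/v) L-rhamnose at OD600 near 0.5, cultures sampled hourly, flipped fraction per protease–substrate barcode pair counted by paired-end Illumina sequencing.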

Variant | area with substrate ENAYFQS | area with substrate ENCYFQS | area with substrate ENDYFQS | area with substrate ENEYFQS | area with substrate ENHYFQS | area with substrate ENKYFQS | area with substrate ENMYFQS | area with substrate ENNYFQS | area with substrate ENPYFQS | area with substrate ENQYFQS | area with substrate ENRYFQS | area with substrate ENSYFQS | area with substrate ENTYFQS | area with substrate ENVYFQS | area with substrate ENGYFQS | area with substrate ENIYFQS | area with substrate ENYYFQS | area with substrate ENWYFQS | area with substrate ENFYFQS
L77V | 0.0796 | 0.0537 | 0.0572 | 0.0594 | 0.058 | 0.0627 | 0.0686 | 0.0559 | 0.0572 | 0.0634 | 0.0648 | 0.0833 | 0.0374 | 0.0578 | – | – | – | – | –
D79I | 0.0673 | – | – | – | 0.0791 | – | 0.0752 | – | – | 0.0554 | – | 0.0325 | 0.03 | – | – | – | – | – | –
R81D | 0.0573 | 0.0724 | 0.0601 | 0.0721 | 0.0417 | 0.0598 | – | 0.0787 | 0.0427 | – | 0.0706 | 0.0537 | – | – | 0.0571 | 0.0611 | 0.0549 | – | –
R81E | 0.0468 | – | 0.0602 | 0.0618 | – | – | – | 0.0637 | – | 0.0527 | 0.0627 | – | – | 0.064 | – | – | – | 0.0516 | –
R81L | 0.0679 | – | – | 0.0702 | 0.0626 | – | 0.0615 | 0.0656 | – | 0.0723 | – | 0.0666 | – | 0.0736 | 0.0621 | 0.101 | 0.0953 | – | 0.0529
D82Q | 0.0705 | 0.0621 | 0.0542 | 0.0551 | 0.0536 | 0.072 | – | 0.0642 | 0.0531 | – | 0.0753 | 0.0534 | – | 0.0588 | 0.0651 | – | 0.0629 | – | 0.0548
M83I | 0.0623 | 0.057 | – | 0.0822 | – | – | – | – | 0.0519 | 0.0581 | 0.0466 | 0.0293 | – | – | – | – | – | – | –
I84C | 0.144 | 0.0674 | 0.0787 | 0.0656 | 0.0663 | – | 0.101 | – | 0.0606 | 0.0474 | 0.0537 | – | 0.0566 | – | 0.0721 | – | – | – | 0.0507
I85M | 0.0656 | 0.0734 | 0.0494 | – | 0.0589 | – | 0.0747 | 0.0604 | 0.0788 | 0.0634 | – | 0.0563 | 0.0422 | 0.0758 | 0.0638 | 0.127 | 0.0487 | – | 0.0721
I85V | 0.0572 | 0.0557 | 0.0581 | 0.0572 | – | 0.0647 | – | – | 0.0749 | 0.067 | 0.0581 | 0.0695 | – | 0.0596 | 0.0652 | – | 0.0501 | 0.0467 | –
I86E | 0.0323 | 0.0347 | 0.0399 | 0.0307 | – | – | – | 0.0324 | 0.0264 | 0.0376 | – | 0.0275 | – | 0.033 | 0.0343 | – | – | 0.0299 | 0.0369
M88I | 0.0822 | 0.0619 | 0.0571 | – | – | – | – | – | – | 0.0557 | – | 0.0662 | 0.0436 | – | 0.0767 | 0.0916 | 0.0583 | 0.0471 | 0.0593
K90L | 0.071 | 0.0535 | 0.0538 | 0.0683 | 0.0602 | – | – | – | – | 0.0641 | 0.0596 | 0.0541 | 0.0671 | 0.0916 | 0.0604 | 0.0979 | – | – | –
F92A | 0.0798 | 0.0476 | 0.05 | 0.0845 | 0.0668 | 0.0582 | – | 0.0489 | 0.0466 | 0.0571 | – | 0.0634 | 0.0592 | 0.0533 | 0.0684 | – | – | – | 0.0424
F95W | 0.0547 | 0.0628 | 0.0539 | 0.0537 | 0.0774 | – | – | 0.0539 | – | 0.0542 | 0.0543 | 0.066 | – | 0.0721 | 0.0495 | – | 0.0569 | 0.0688 | 0.0273
